Reference: article PMC11995724, “Antibiotic target discovery by integrated phenotypic and activity-based profiling of electrophilic fragments” (Cell chemical biology, 2025)
In all, about 3,200 compounds went through this assay and about 75 (2%) showed an effect of 50% or more. This is one part of the list.

System: T1, S. aureus MSSA476
T1 construct: MSSA476
Design: species or system S. aureus MSSA476 (TSB) or V. cholerae SAD30 (LB); 384-well bacterial growth screen at 25 uM, OD600 relative to DMSO control
Details: relative growth, OD600, TSB; 25 µM; inhibitor

Compound | % of control remaining [%]
CCc1nsc(N2CCCN(C(=O)C(C)Cl)CC2)n1 (stereo not drawn) [7-B15, 2-chloro-1-[4-(3-ethyl-1,2,4-thiadiazol-5-yl)-1,4-diazepan-1-yl]propan-1-one] | 94.8195
CCOC(=O)c1c(NC(=O)CCl)sc2c1CCCC2 [6-I11, ethyl 2-(2-chloroacetamido)-4,5,6,7-tetrahydro-1-benzothiophene-3-carboxylate] | 96.6341
C=CC(=O)Nc1ccc(-n2nc(C)[nH]c2=O)cc1 [2-E16, N-[4-(3-methyl-5-oxo-4,5-dihydro-1H-1,2,4-triazol-1-yl)phenyl]prop-2-enamide] | 120.801
CC(Cl)C(=O)Nc1nc(-c2ccccc2)cs1 (stereo not drawn) [6-L10, 2-chloro-N-(4-phenyl-1,3-thiazol-2-yl)propanamide] | 85.0244
C=CC(=O)Nc1cc(NC(=O)[C@@H]2CSCN2C(=O)CC)ccc1F [2-P18, (4R)-N-[4-fluoro-3-(prop-2-enamido)phenyl]-3-propanoyl-1,3-thiazolidine-4-carboxamide] | 83.899
CC(Cl)C(=O)N1Cc2ccoc2CC(C)(C)C1 (stereo not drawn) [5-P21, 2-chloro-1-{7,7-dimethyl-4H,5H,6H,7H,8H-furo[3,2-c]azepin-5-yl}propan-1-one] | 106.74
CCCCNC(=O)C(C#N)=Cc1cc(C)ccc1C [9-C11, N-butyl-2-cyano-3-(2,5-dimethylphenyl)prop-2-enamide] | 94.9813
C=CC(=O)N1CCC(C(=O)Nc2ccn(CC(=O)N(C)C)n2)CC1 [2-H12, N-{1-[(dimethylcarbamoyl)methyl]-1H-pyrazol-3-yl}-1-(prop-2-enoyl)piperidine-4-carboxamide] | 113.49
Cc1cccc(-n2cc(C(=O)CCl)nn2)c1 [10-L07] | 0
C=CC(=O)NCC(C)(C)C1CCCCC1 [1-E21, N-(2-cyclohexyl-2-methylpropyl)prop-2-enamide] | 91.0769
COc1cc(C=C(C#N)C(=O)Nc2ccccn2)ccc1O [9-P08, 2-cyano-3-(4-hydroxy-3-methoxyphenyl)-N-(pyridin-2-yl)prop-2-enamide] | 112.959
N#CC(=Cc1ccccc1OC(F)F)C(=O)NC1CCCCC1 [8-H18, 2-cyano-N-cyclohexyl-3-[2-(difluoromethoxy)phenyl]prop-2-enamide] | 92.9461
C=CC(=O)N1CCn2cccc2C12COC2 [1-K09, 1-{3',4'-dihydro-2'H-spiro[oxetane-3,1'-pyrrolo[1,2-a]pyrazin]-2'-yl}prop-2-en-1-one] | 107.253
CN(CC(=O)NCc1ccco1)C(=O)CCl [4-A18, 2-chloro-N-({[(furan-2-yl)methyl]carbamoyl}methyl)-N-methylacetamide] | 130.729
CC(CC#N)Sc1ccccc1NC(=O)CCl (stereo not drawn) [5-F14, 2-chloro-N-{2-[(1-cyanopropan-2-yl)sulfanyl]phenyl}acetamide] | 112.204
CC(Cl)C(=O)NCc1ncn(Cc2cccc(F)c2)n1 (stereo not drawn) [7-K03, 2-chloro-N-({1-[(3-fluorophenyl)methyl]-1H-1,2,4-triazol-3-yl}methyl)propanamide] | 114.286
COc1ccc(CN2CCN(C(=O)CCl)CC2)cc1F.Cl [4-P18, 2-chloro-1-{4-[(3-fluoro-4-methoxyphenyl)methyl]piperazin-1-yl}ethan-1-one hydrochloride] | 106.336
CN(CCC1CCCCC1)C(=O)CCl [5-A06, 2-chloro-N-(2-cyclohexylethyl)-N-methylacetamide] | 90.7104
O=C(CCl)N1CCCC1c1nc(Cc2ccc(F)cc2)no1 (stereo not drawn) [5-M10, 2-chloro-1-(2-{3-[(4-fluorophenyl)methyl]-1,2,4-oxadiazol-5-yl}pyrrolidin-1-yl)ethan-1-one] | 85.9745
O=C(CCl)c1c[nH]c(C(=O)N2CCCC2)c1 [10-A16, 2-chloro-1-[5-(pyrrolidine-1-carbonyl)-1H-pyrrol-3-yl]ethan-1-one] | 115
C=CC(=O)NCC1CCCC(C2CC2)O1 (stereo not drawn) [1-M17, N-[(6-cyclopropyloxan-2-yl)methyl]prop-2-enamide] | 124.835
Cc1ccc(CNC(=O)C(C)Cl)cc1 (stereo not drawn) [5-O03, 2-chloro-N-[(4-methylphenyl)methyl]propanamide] | 106.74
Cc1cc(C(=O)CCl)c(C)n1-c1cccc([N+](=O)[O-])c1 [10-B16, 2-chloro-1-[2,5-dimethyl-1-(3-nitrophenyl)-1H-pyrrol-3-yl]ethan-1-one] | 136.563

Compound | % of control remaining [%]
N#CC(=Cc1ccc(-c2ccccc2F)o1)C(=O)NCc1ccccc1 [9-H10, N-benzyl-2-cyano-3-[5-(2-fluorophenyl)furan-2-yl]prop-2-enamide] | 112.659
O=C(CCl)c1c(-c2ccccc2)[nH]c2ccccc12 [10-E05, 2-chloro-1-(2-phenyl-1H-indol-3-yl)ethan-1-one] | 159.063
CC(C)NC(=O)C(C#N)=Cc1cccc(O)c1 [8-A22, 2-cyano-3-(3-hydroxyphenyl)-N-(propan-2-yl)prop-2-enamide] | 90.2905
N#CC(=Cc1ccc(O)c(O)c1)C(=O)Nc1ccccc1F [8-B05, 2-cyano-3-(3,4-dihydroxyphenyl)-N-(2-fluorophenyl)prop-2-enamide] | 94.9378
C=CC(=O)NCc1noc2c1CC(C)(C)CC2 [2-L07, N-[(5,5-dimethyl-4,5,6,7-tetrahydro-1,2-benzoxazol-3-yl)methyl]prop-2-enamide] | 121.149
COc1cc(CC2CN(C(=O)C(C)Cl)C2)cc(OC)c1 (stereo not drawn) [7-H07, 2-chloro-1-{3-[(3,5-dimethoxyphenyl)methyl]azetidin-1-yl}propan-1-one] | 113.658
Cc1cc(C(=O)CCl)c(C)n1-c1ccon1 [10-F06, 2-chloro-1-[2,5-dimethyl-1-(1,2-oxazol-3-yl)-1H-pyrrol-3-yl]ethan-1-one] | 106.875
COc1ccccc1N(CC(F)(F)F)C(=O)CCl [4-C18, 2-chloro-N-(2-methoxyphenyl)-N-(2,2,2-trifluoroethyl)acetamide] | 123.487
C=CC(=O)NCc1nnc2ccccn12 [1-H19, N-({[1,2,4]triazolo[4,3-a]pyridin-3-yl}methyl)prop-2-enamide] | 111.473
C=CC(=O)N[C@@H](CN(C)C)c1ccccc1 [2-M19, N-[(1R)-2-(dimethylamino)-1-phenylethyl]prop-2-enamide] | 86.3359
O=C(CCl)NCC(F)(F)c1cccnc1 [6-C21, 2-chloro-N-[2,2-difluoro-2-(pyridin-3-yl)ethyl]acetamide] | 96.2927
O=C(CCl)N1CCCCC1Cn1ccnn1 (stereo not drawn) [5-E08, 2-chloro-1-{2-[(1H-1,2,3-triazol-1-yl)methyl]piperidin-1-yl}ethan-1-one] | 93.6248
C=CC(=O)NCc1cn2c(n1)CCCC2 [3-L20, N-({5H,6H,7H,8H-imidazo[1,2-a]pyridin-2-yl}methyl)prop-2-enamide] | 103.439
CC(Cl)C(=O)N1CCC(n2c(=O)[nH]c3ccccc32)CC1 (stereo not drawn) [6-N05, 1-[1-(2-chloropropanoyl)piperidin-4-yl]-2,3-dihydro-1H-1,3-benzodiazol-2-one] | 101.073
CCOc1ccc(C=C(C#N)C(=O)Nc2nccs2)cc1 [9-C06, 2-cyano-3-(4-ethoxyphenyl)-N-(1,3-thiazol-2-yl)prop-2-enamide] | 114.757
O=C(CCl)N(Cc1nc(C2CCCCCC2)no1)C1CC1 [7-B16, 2-chloro-N-[(3-cycloheptyl-1,2,4-oxadiazol-5-yl)methyl]-N-cyclopropylacetamide] | 78.179
COCC(C)n1c(C)cc(C=C(C#N)C(=O)NS(C)(=O)=O)c1C (stereo not drawn) [8-B04, 2-cyano-N-methanesulfonyl-3-[1-(1-methoxypropan-2-yl)-2,5-dimethyl-1H-pyrrol-3-yl]prop-2-enamide] | 97.2614
Cc1ccc(C(=O)C(C)Cl)cc1C (stereo not drawn) [10-B20, 2-chloro-1-(3,4-dimethylphenyl)propan-1-one] | 91.875
C=CC(=O)N(C)CCCn1c(=O)c(C)nc2ccccc21 [1-I08, N-methyl-N-[3-(3-methyl-2-oxo-1,2-dihydroquinoxalin-1-yl)propyl]prop-2-enamide] | 109.363
O=C(CCl)NCCc1nc2ccccc2s1 [6-K20, N-[2-(1,3-benzothiazol-2-yl)ethyl]-2-chloroacetamide] | 93.561
CN(C)c1ccc(C=C(C#N)C(=O)Nc2ccc3c(c2)OCCO3)cc1 [9-B21, 2-cyano-N-(2,3-dihydro-1,4-benzodioxin-6-yl)-3-[4-(dimethylamino)phenyl]prop-2-enamide] | 106.067
CC(Cl)C(=O)N1CCn2cccc2C1c1ccccc1 (stereo not drawn) [7-E11, 2-chloro-1-{1-phenyl-1H,2H,3H,4H-pyrrolo[1,2-a]pyrazin-2-yl}propan-1-one] | 118.053
